# Measured values from the supplement of paper PMC8728848.
# The list shows a part of the results.
# B1: LICBM33A (Lactococcus lactis), Q9CE94 (protein)
# chain: MKKLLTGLLVAAGLLSVSLLIKTDTVSAHGYVQSPPARGYQGQLDSQSLGWTAAFNIYGNVISNPQSLEAPKGFPECGPADGRIASANGGLGQIGDFVLDNQTSSRWKKTSISTGSNIFTWKYTAPHKTTKWHYYMTKTGWDQNAPLKHSELELIGTINHDGSPATNNLSHTINIPTDRSGYHIVLAVWDVADTSNAFYNVIDINVNNKNASSQVFGPFL
# Columns and labels:
# Test in all cases: glycan array binding signal (z-score within array); higher = stronger binding
# Conditions in all cases: glycan notation: IUPAC condensed, linker removed
# [1] = biological target: Gal(b1-4)GlcNAc(b1-3)Gal(b1-4)GlcNAc(b1-3)Gal(b1-4)GlcNAc(b1-3)Gal(b1-4)GlcNAc(b1-2)Man(a1-3)[Gal(b1-4)GlcNAc(b1-3)Gal(b1-4)GlcNAc(b1-3)Gal(b1-4)GlcNAc(b1-3)Gal(b1-4)GlcNAc(b1-2)Man(a1-6)]Man(b1-4)GlcNAc(b1-4)GlcNAc
# Summary of the method: (§1)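 The binding signal is a Z-score computed within each array and averaged over linkers. Arrays of the same protein sequence at different concentrations or buffers were also averaged together. Data originate from 3228 arrays in the Consortium for Functional Glycomics database, kept only where the protein sequence was available.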
# [2] = biological target: Gal(b1-4)GlcNAc(b1-3)Gal(b1-4)GlcNAc(b1-3)Gal(b1-4)GlcNAc(b1-3)Gal(b1-4)GlcNAc(b1-2)Man(a1-3)[Gal(b1-4)GlcNAc(b1-3)Gal(b1-4)GlcNAc(b1-3)Gal(b1-4)GlcNAc(b1-3)Gal(b1-4)GlcNAc(b1-2)Man(a1-6)]Man(b1-4)GlcNAc(b1-4)[Fuc(a1-6)]GlcNAc
# Summary of the method: as §1
# [3] = biological target: Gal(b1-4)GlcNAc(b1-3)Gal(b1-4)GlcNAc(b1-3)Gal(b1-4)GlcNAc(b1-3)Gal(b1-4)GlcNAc(b1-2)[Gal(b1-4)GlcNAc(b1-3)Gal(b1-4)GlcNAc(b1-3)Gal(b1-4)GlcNAc(b1-3)Gal(b1-4)GlcNAc(b1-6)]Man(a1-6)[Gal(b1-4)GlcNAc(b1-3)Gal(b1-4)GlcNAc(b1-3)Gal(b1-4)GlcNAc(b1-3)Gal(b1-4)GlcNAc(b1-2)Man(a1-3)]Man(b1-4)GlcNAc(b1-4)[Fuc(a1-6)]GlcNAc
# Summary of the method: as §1
# [4] = biological target: Gal(b1-4)GlcNAc(b1-3)Gal(b1-4)GlcNAc(b1-3)Gal(b1-4)GlcNAc(b1-3)Gal(b1-4)GlcNAc(b1-3)Gal(b1-4)GlcNAc(b1-2)Man(a1-3)[Gal(b1-4)GlcNAc(b1-3)Gal(b1-4)GlcNAc(b1-3)Gal(b1-4)GlcNAc(b1-3)Gal(b1-4)GlcNAc(b1-3)Gal(b1-4)GlcNAc(b1-2)Man(a1-6)]Man(b1-4)GlcNAc(b1-4)GlcNAc
# Summary of the method: as §1
# [5] = biological target: Gal(b1-4)GlcNAc(b1-3)Gal(b1-4)GlcNAc(b1-3)Gal(b1-4)GlcNAc(b1-3)Gal(b1-4)GlcNAc(b1-3)Gal(b1-4)GlcNAc(b1-2)Man(a1-3)[Gal(b1-4)GlcNAc(b1-3)Gal(b1-4)GlcNAc(b1-3)Gal(b1-4)GlcNAc(b1-3)Gal(b1-4)GlcNAc(b1-3)Gal(b1-4)GlcNAc(b1-2)Man(a1-6)]Man(b1-4)GlcNAc(b1-4)[Fuc(a1-6)]GlcNAc
# Summary of the method: as §1
# [6] = biological target: Gal(b1-4)GlcNAc(b1-3)Gal(b1-4)GlcNAc(b1-3)Gal(b1-4)GlcNAc(b1-3)Gal(b1-4)GlcNAc(b1-3)Gal(b1-4)GlcNAc(b1-2)[Gal(b1-4)GlcNAc(b1-3)Gal(b1-4)GlcNAc(b1-3)Gal(b1-4)GlcNAc(b1-3)Gal(b1-4)GlcNAc(b1-3)Gal(b1-4)GlcNAc(b1-6)]Man(a1-6)[Gal(b1-4)GlcNAc(b1-3)Gal(b1-4)GlcNAc(b1-3)Gal(b1-4)GlcNAc(b1-3)Gal(b1-4)GlcNAc(b1-3)Gal(b1-4)GlcNAc(b1-2)Man(a1-3)]Man(b1-4)GlcNAc(b1-4)[Fuc(a1-6)]GlcNAc
# Summary of the method: as §1
# [7] = biological target: Gal(b1-4)GlcNAc(b1-3)Gal(b1-4)GlcNAc(b1-3)Gal(b1-4)GlcNAc(b1-3)Gal(b1-4)GlcNAc(b1-3)Gal(b1-4)GlcNAc(b1-3)Gal(b1-4)GlcNAc(b1-2)Man(a1-3)[Gal(b1-4)GlcNAc(b1-3)Gal(b1-4)GlcNAc(b1-3)Gal(b1-4)GlcNAc(b1-3)Gal(b1-4)GlcNAc(b1-3)Gal(b1-4)GlcNAc(b1-3)Gal(b1-4)GlcNAc(b1-2)Man(a1-6)]Man(b1-4)GlcNAc(b1-4)GlcNAc
# Summary of the method: as §1
# [8] = biological target: Gal(b1-4)GlcNAc(b1-3)Gal(b1-4)GlcNAc(b1-3)GalNAc
# Summary of the method: as §1
# [9] = biological target: Gal(b1-4)GlcNAc(b1-3)Gal(b1-4)GlcNAc(b1-3)[Gal(b1-4)GlcNAc(b1-3)Gal(b1-4)GlcNAc(b1-6)]GalNAc
# Summary of the method: as §1
# [10] = biological target: Gal(b1-4)GlcNAc(b1-3)Gal(b1-4)GlcNAc(b1-6)[Gal(b1-3)]GalNAc
# Summary of the method: as §1
# [11] = biological target: Gal(b1-4)GlcNAc(b1-3)Gal(b1-4)[Fuc(a1-3)]GlcNAc(b1-3)Gal(b1-4)[Fuc(a1-3)]GlcNAc
# Summary of the method: as §1
# [12] = biological target: Gal(b1-4)GlcNAc(b1-3)GalNAc
# Summary of the method: as §1
# [13] = biological target: Gal(b1-4)GlcNAc(b1-3)[Fuc(a1-3)GlcNAc(b1-6)]Gal(b1-4)Glc
# Summary of the method: as §1
# [14] = biological target: Gal(b1-4)GlcNAc(b1-3)[Gal(b1-4)GlcNAc(b1-6)]Gal(b1-4)GlcNAc
# Summary of the method: as §1
# [15] = biological target: Gal(b1-4)GlcNAc(b1-3)[GlcNAc(b1-6)]Gal(b1-4)GlcNAc
# Summary of the method: as §1
# [16] = biological target: Gal(b1-4)GlcNAc(b1-6)Gal(b1-4)GlcNAc
# Summary of the method: as §1
# [17] = biological target: Gal(b1-4)GlcNAc(b1-6)GalNAc
# Summary of the method: as §1
# [18] = biological target: Gal(b1-4)GlcNAc(b1-6)[Gal(b1-3)]GalNAc
# Summary of the method: as §1
# [19] = biological target: Gal(b1-4)GlcNAc(b1-6)[Gal(b1-4)GlcNAc(b1-3)]GalNAc
# Summary of the method: as §1
# Gal(b1-4)GlcNAc6P = biological target: Gal(b1-4)GlcNAc6P
# Summary of the method: as §1
# Gal(b1-6)Gal = biological target: Gal(b1-6)Gal
# Summary of the method: as §1
# Gal3S(b1-3)GalNAc = biological target: Gal3S(b1-3)GalNAc
# Summary of the method: as §1
# Gal3S(b1-3)GlcNAc = biological target: Gal3S(b1-3)GlcNAc
# Summary of the method: as §1
binder,measurement,setting,value
B1,glycan array binding signal (z-score),[1],3.05
same,glycan array binding signal (z-score),[2],4.11
same,glycan array binding signal (z-score),[3],-0.119
same,glycan array binding signal (z-score),[4],0.843
same,glycan array binding signal (z-score),[5],6.2
same,glycan array binding signal (z-score),[6],6.18
same,glycan array binding signal (z-score),[7],-0.395
same,glycan array binding signal (z-score),[8],-0.241
same,glycan array binding signal (z-score),[9],-0.232
same,glycan array binding signal (z-score),[10],0.491
same,glycan array binding signal (z-score),[11],-0.164
same,glycan array binding signal (z-score),[12],-0.527
same,glycan array binding signal (z-score),[13],-0.356
same,glycan array binding signal (z-score),[14],-0.182
same,glycan array binding signal (z-score),[15],-0.24
same,glycan array binding signal (z-score),[16],-0.341
same,glycan array binding signal (z-score),[17],-0.959
same,glycan array binding signal (z-score),[18],0.787
same,glycan array binding signal (z-score),[19],-0.654
same,glycan array binding signal (z-score),Gal(b1-4)GlcNAc6P,0.236
same,glycan array binding signal (z-score),Gal(b1-6)Gal,-0.335
same,glycan array binding signal (z-score),Gal3S(b1-3)GalNAc,-0.215
same,glycan array binding signal (z-score),Gal3S(b1-3)GlcNAc,-0.098
